{"source": "PubChem BioAssay AID624296", "about": "(National Center for Advancing Translational Sciences (NCATS), 2012)", "note": "About 9,900 (2.8%) of roughly 350,000 compounds were called active. The inconclusive results got no clear call from the source; some entries with a clear call stand among them for comparison. The call rests on the fitted dose curve; in most records, active means well fitted activation curve with a large enough effect; inconclusive means small, poorly fitted or top-dose-only effect; inactive means no such curve, though single readings can be large or run the other way. Potencies of inconclusive entries are left out as doubtful fits. Potency means the concentration at half of the fitted maximal effect; tags describe the fitted curve by direction and shape."}
{"experiment": "A quantitative high throughput screen for small molecules that induce DNA re-replication in MCF 10a normal breast cells; further: nearly all actives have a fitted effect of over 50% in size; on activity, positive = re-replication: % of control where 0% means no effect.", "conditions": "MCF 10A DNA re-replication, Hoechst nuclear intensity, 48 h; activity, positive = re-replication: at 46.1 µM (top of the series)"}
{"molecule": "CC(=NCCc1c[nH]c2ccccc12)c1c(O)n(Cc2ccccc2)c(=O)[nH]c1=O", "Potency": "inconclusive [activator, partial curve, poor fit]"}
{"molecule": "Cn1c(O)c(C=NCCN2CCNCC2)c(=O)[nH]c1=O", "activity, positive = re-replication": "inactive: 0.635%"}
{"molecule": "Cc1ccc(-c2nc3ccccc3c(=O)n2-c2ccccn2)cc1", "Potency": "inconclusive [activator, partial curve, poor fit]"}
{"molecule": "O=C1Nc2ccc(Cl)cc2C(c2ccccc2Cl)=NC1O", "note": "(stereo unspecified)", "activity, positive = re-replication": "inactive: 5.12%"}
{"molecule": "CC(=O)O[C@H]1C[C@@H]2OC3C=C(C)CCC3(C)[C@@]1(C)[C@@]21CO1", "note": "(stereo partly specified)", "Potency": "active: 1.03 µM"}
{"molecule": "NC(=O)c1c(Br)n(C2OC(CO)C(O)C2O)c2ncnc(N)c12", "note": "(stereo unspecified)", "Potency": "active: 2.31 µM"}
{"molecule": "CCOc1cc2c(cc1OCC)-n1cccc1C(c1ccccc1F)NC2", "note": "(stereo unspecified)", "Potency": "inconclusive [activator, partial curve, poor fit]"}
{"molecule": "COc1ccc2[nH]c3c(c2c1)CCN1C(=O)C(CC(=O)NCc2cccc(C(F)(F)F)c2)C[C@H](C(=O)N2CCCCC2)[C@@]31C", "note": "(stereo partly specified)", "Potency": "inconclusive [activator, partial curve, poor fit]"}
{"molecule": "CCCCC/C(=N/O)c1c(C)[nH]c2ccccc12", "Potency": "inconclusive [activator, partial curve, poor fit]"}
{"molecule": "CCCCn1c(O)c(C(=O)/C=C/c2c[nH]c3ccccc23)c(=O)[nH]c1=O", "Potency": "active: 18.4 µM"}
{"molecule": "O=C1CN=C(c2ccccc2)c2c(sc3c2CCCC3)N1", "Potency": "inconclusive [activator, single point]"}
{"molecule": "O=C(O)c1ccc(-n2c(O)c(/C=C3\\C=Nc4ccccc43)c(=O)[nH]c2=O)cc1", "Potency": "inconclusive [activator, single point]"}
{"molecule": "CCN1CCN(S(=O)(=O)c2cnc(Cl)c(Br)c2)CC1", "Potency": "inconclusive [activator, single point]"}
{"molecule": "COC(=O)C1=C(c2cc3ccccc3s2)C[C@@H]2CC[C@H]1N2C(=O)NCc1ccc(C(F)(F)F)cc1", "Potency": "inconclusive [activator, single point]"}
{"molecule": "NC(=O)c1cc([N+](=O)[O-])cc([N+](=O)[O-])c1", "Potency": "inactive"}
{"molecule": "CC(=O)c1cn(Cc2ccccc2C#N)c2ccccc12", "Potency": "inconclusive [activator, single point]"}
{"molecule": "CCC(=O)c1ccc(OC(=O)N(C)c2ccccc2)cc1", "activity, positive = re-replication": "inactive: -2.66%"}
{"molecule": "CCC(=NCc1cc(OC)cc(OC)c1)c1c(O)n(C)c(=O)n(C)c1=O", "activity, positive = re-replication": "inactive: -0.316%"}
{"molecule": "CC(=O)OC1C2(CC3N4C(=O)C5(CO)SSC4(CC31O)C(=O)N5C)OC(C)C(C)(C)C2=O", "note": "(stereo unspecified)", "Potency": "inconclusive [activator, full curve, poor fit]"}
{"molecule": "Cc1ccnc(NC(=O)CCCc2ccc(N(CCCl)CCCl)cc2)n1", "Potency": "inconclusive [activator, single point]"}
{"molecule": "Cc1cc(Cl)ccc1OCCCC(=O)NCc1cccs1", "Potency": "inconclusive [activator, partial curve, poor fit]"}
{"molecule": "CN1C[C@@H]2C[C@@H](c3cccn3-c3ccccn3)N3CCC[C@@]23C1=O", "activity, positive = re-replication": "inactive: -23.3%"}
{"molecule": "COC(=O)C1=C(c2ccccc2)C[C@@H]2CC[C@H]1N2C(=O)NCc1cccc2ccccc12", "activity, positive = re-replication": "inactive: -1.24%"}
{"molecule": "COc1ccc(-n2c(/C=C/c3ccc(O)c(O)c3)nc3ccccc3c2=O)cc1", "Potency": "inconclusive [activator, single point]"}
{"molecule": "CC1(C)c2[nH]c3ccccc3c2C[C@@H]2C(=O)N(Cc3ccccc3F)C(=O)N21", "Potency": "inconclusive [activator, single point]"}
{"molecule": "CCOC(=O)C(O)(c1ccc(NC(=O)Oc2ccccc2)cc1)C(F)(F)F", "note": "(stereo unspecified)", "Potency": "inconclusive [activator, single point]"}
{"molecule": "Cn1c(CCCC(=O)O)nc2cc(N(CCCl)CCCl)ccc21", "Potency": "inconclusive [activator, partial curve, poor fit]"}
{"molecule": "CCC(=O)Nc1cc(C(=O)O)ccc1S(=O)(=O)c1ccc(C)cc1", "activity, positive = re-replication": "inactive: -32.1%"}
{"molecule": "C=CCOc1c(Cl)cc(CNc2ccc3[nH]c(=O)[nH]c3c2)cc1OC", "Potency": "inconclusive [activator, single point]"}
{"molecule": "CCOC(=O)C/C(C)=N/NC(=O)COc1ccccc1C", "Potency": "inconclusive [activator, single point]"}
{"molecule": "O=C(NC(=C(Cl)Cl)P(=O)(c1ccccc1)c1ccccc1)c1ccccc1", "activity, positive = re-replication": "inactive: -0.803%"}
{"molecule": "COC(=O)C1=C(c2ccccc2OCc2ccccc2)C[C@@H]2CC[C@H]1N2C(=O)NCCOc1ccccc1Cl", "Potency": "inconclusive [activator, partial curve]"}
{"molecule": "CN1C(=O)/C(=C/c2ccc(Cl)s2)C(=O)NC1=S", "Potency": "inconclusive [activator, single point]"}
{"molecule": "COC(=O)C1=C(c2ccc(F)cc2OCc2ccccc2)C[C@@H]2CC[C@H]1N2C(=O)NCc1ccc(C(F)(F)F)cc1", "Potency": "active: 14.6 µM"}
{"molecule": "CCCCCCCC(=O)OCC(COC(=O)CCCCCCC)OC(=O)CCCCCCC", "Potency": "inconclusive [activator, full curve, poor fit]"}
{"molecule": "Cc1nn(Cc2ccccc2Cl)c(C)c1C(=O)NC1CCCc2ccccc21", "note": "(stereo unspecified)", "Potency": "inconclusive [activator, partial curve, poor fit]"}
{"molecule": "O=c1[nH]c(=O)n(CCC2=CCCCC2)c(O)c1/C=N/N1CCOCC1", "activity, positive = re-replication": "inactive: -4.97%"}
{"molecule": "Cc1cc(N2CCNCC2)nc2ccccc12", "Potency": "inconclusive [activator, partial curve, poor fit]"}
{"molecule": "OC(CN1CCC(c2c[nH]c3ccccc23)CC1)C(F)(F)F", "note": "(stereo unspecified)", "activity, positive = re-replication": "inactive: 13.7%"}
{"molecule": "COc1ccc(NC(=O)c2c(C)nn(Cc3ccccc3Cl)c2Cl)cc1Cl", "Potency": "active: 16.4 µM"}
{"molecule": "COC(=O)C1=C(c2ccc(Cl)c(C(F)(F)F)c2)C[C@@H]2CC[C@H]1N2C(=O)NCc1cc(C)oc1C(F)(F)F", "activity, positive = re-replication": "inactive: 41%"}
{"molecule": "CC12CCC(O)CC1CCC1C2CCC2(C)C(C3=CC(=O)OC3)CCC12O", "note": "(stereo unspecified)", "Potency": "inconclusive [activator, full curve]"}
{"molecule": "Cc1cccc(N2C(=O)/C(=C/c3ccc(N4CCN(C)CC4)o3)C(=O)NC2=S)c1C", "Potency": "inconclusive [activator, partial curve, poor fit]"}
{"molecule": "COc1ccc2c(c1)NP(=S)(c1ccccc1)N2", "note": "(stereo unspecified)", "activity, positive = re-replication": "inactive: 0.0619%"}
{"molecule": "CCCOC(=O)c1ccc(-[n+]2c(-c3ccccc3)cc(-c3ccccc3)cc2-c2ccccc2)cc1", "Potency": "inconclusive [activator, single point]"}
{"molecule": "CN1CCc2cc(O)cc3c2[C@H]1Cc1ccc(O)c(O)c1-3", "Potency": "inconclusive [activator, single point]"}
{"molecule": "CCN(CC)c1ccc(C=C2C(=O)NC(=S)NC2=O)cc1", "Potency": "inconclusive [activator, single point]"}
{"molecule": "COc1ccc(C(=O)Oc2cccc3cccnc23)cc1S(=O)(=O)N1CCOCC1", "Potency": "inconclusive [activator, single point]"}
{"molecule": "C=CCc1cc(C=C2C(=O)N(C)C(=O)N(C)C2=O)cc(OCC)c1OCc1ccccc1", "Potency": "inconclusive [activator, partial curve, poor fit]"}
{"molecule": "CC1OC(C[N+](C)(C)C)CC1O", "note": "(stereo unspecified)", "Potency": "inconclusive [activator, full curve, poor fit]"}
{"molecule": "CC1(C)OC(c2ccccc2)=C/C(=C/C=C2C(=O)NC(=O)NC2=O)O1", "Potency": "active: 18.4 µM"}
{"molecule": "COc1ccc(S(=O)(=O)N2Cc3cnnn3-c3ccccc3C2C#N)cc1", "note": "(stereo unspecified)", "activity, positive = re-replication": "inactive: -2.44%"}
{"molecule": "Cc1nc2nc(SCC(=O)N3CCC4(CC3)OCCO4)nn2c(C)c1Cc1ccccc1", "activity, positive = re-replication": "inactive: 18.9%"}
{"molecule": "CN(C=O)CP(=O)(O)CN(C)C=O", "activity, positive = re-replication": "inactive: -1.5%"}
{"molecule": "CN(C)S(=O)(=O)c1cc(NC(=O)C[N+]23CCN(CC2)CC3)ccc1Cl", "activity, positive = re-replication": "inactive: 4.59%"}
{"molecule": "CN1CCN(c2ccc([N+](=O)[O-])c(N/N=C3\\CN4CCC3CC4)c2)CC1", "activity, positive = re-replication": "inactive: 1.26%"}
{"molecule": "Nn1c(CSc2nc3ccccc3o2)nnc1CSc1nc2ccccc2o1", "Potency": "inconclusive [activator, single point]"}
{"molecule": "COc1cc(/C=C2\\C[C@H]3[C@@H]4CC=C5C[C@@H](N6CCCC6)CC[C@]5(C)[C@H]4CC[C@]3(C)[C@H]2O)cc(OC)c1OC", "Potency": "inconclusive [activator, partial curve]"}
{"molecule": "CN1C(=O)C(=Cc2sc(=O)n(-c3ccccc3)c2N2CCCCC2)C(=O)N(C)C1=O", "Potency": "inconclusive [activator, single point]"}
{"molecule": "Cc1sc2c(c1C)C(c1ccc(C(C)(C)C)cc1)=NCC(=O)N2CC(=O)Nc1nccs1", "Potency": "inconclusive [activator, single point]"}
{"molecule": "Cn1c(O)c(C=NC2CC(C)(C)NC(C)(C)C2)c(=O)n(C)c1=O", "Potency": "inconclusive [activator, single point]"}
{"molecule": "COC(=O)C1=C(c2ccccc2OCc2ccccc2)C[C@@H]2CC[C@H]1N2C(=O)NCc1ccc(C(C)(C)C)cc1", "Potency": "inconclusive [activator, partial curve, poor fit]"}
{"molecule": "C#CC1(O)CCC2C3CCC4=CC(=O)CCC4=C3C=CC21C", "note": "(stereo unspecified)", "activity, positive = re-replication": "inactive: 28.3%"}
{"molecule": "C=C(C=O)C[C@@H]1C[C@H](O)C2OC3C[C@]4(C)OC5/C=C\\CC6OC7C(CC=CCC6OC5CCCC4OC3CC2O1)OC1CC2OC3CC(=O)OC3C[C@@H](C)C[C@@]2(C)OC1C[C@@H]7C", "note": "(stereo partly specified)", "Potency": "active: 0.731 µM"}
{"molecule": "O=Cc1cn(Cc2c(F)cccc2Cl)c2ccccc12", "Potency": "inconclusive [activator, partial curve, poor fit]"}
{"molecule": "Cc1ccc(N=C(/N=C(\\N)N[N+](=O)[O-])Nc2ccc(C)cc2)cc1", "Potency": "inconclusive [activator, partial curve, poor fit]"}
